Data published in ChEMBL document CHEMBL4888484, “Replenishing the malaria drug discovery pipeline: Screening and hit evaluation of the MMV Hit Generation Library 1 (HGL1) against asexual blood stage Plasmodium falciparum ,using a nano luciferase reporter read-out” (2022).
The campaign covered roughly 150,000 compounds. About 540 (0.36%) showed an effect of 50% or more. The list shows a part of the results.

What follows are compounds tested on Plasmodium falciparum (assay: Primary screen in NF54 nanoGlo assay, in single point, at 2uM, 72h; a lower Z score goes with more inhibition). Conditions: timepoint 72 hour.
Type: functional, Erythrocyte

SMILES	% Inhibition [%]	Z score
CC(OC(=O)Cc1ccccc1CC#N)C1CCCCN1C(=O)OC(C)(C)C (stereo unspecified)	-7	0.86
CCOC(=O)C1(C[C@H]2CCCCO2)CCN(S(=O)(=O)c2ccc(F)cc2Cl)CC1	-9	1.13
CC(C)c1nccc(NC[C@@H](O)CO)n1	-10	1.6
CCn1ccc2ccn(CCNC(=O)c3cccc(-n4cnnn4)c3)c(=O)c21	-4	0.84
O=C(NCc1cc(-c2cccs2)on1)c1ncc(-c2ccccc2)o1	10	-1.42
Cc1cccc(OCC(=O)N2CCO[C@@H](COc3ccc(F)cc3)C2)c1	-10	1.11
O=C1CCCN1CC[C@H]1CCCCN1C(=O)c1cnc(C2CC2)nc1	-7	0.89
Cn1cc(-c2nc3cnccc3[nH]2)c(-c2ccc(Oc3ccccc3)cc2)n1	-2	0.38
CC1CN(c2nccnc2C#N)CCN1C1C=CCCC1 (stereo unspecified)	2	-0.22
Cc1nc(N2CC[C@H](C3CCN(C)CC3)C2)sc1C	-6	1.13
Cn1ncc(C(=O)Nc2ccccc2)c1C(=O)Nc1ccccc1	32	-3.62
CC(C)(C)c1ccc(NC(=O)N2C3CCC2COC3)cc1	11	-1.29
CC(C)CN1CCN(C(=O)c2nc3cnccc3s2)CC1=O	-2	0.29
O=C(OCc1nc2ccc(F)cc2o1)c1scnc1C1CC1	-1	0.18
COCC1(CNS(=O)(=O)C(C)C)CCCC1	-7	0.95
Cc1ncc2c(c1-c1noc(-c3ccccc3-c3nc[nH]n3)n1)CCNC2	-9	1.25
CC1=CC(=[N+](CCO)CCO)C=C/C1=C(\c1ccc(N(CCO)CCO)cc1C)c1ccccc1Cl	86	-10.15
COCC(=O)NC1CN(C(=O)c2coc(C)c2)C1	0	-0.07
CN(C(=O)Nc1ccc(-n2cnnn2)cc1)C1CCCCC1	-1	0.1
COCCOc1ccccc1N1CCN(C(=O)CNC(=O)NC2CCCCC2)CC1	-12	2.6
O=C(NC[C@@H]1COc2ccccc2C1)c1cnc[nH]c1=O	2	-0.27
COc1ccc(-c2nnc3c4c(cnn23)nnn4-c2ccc(Cl)cc2)cc1	0	0

SMILES	% Inhibition [%]	Z score
O=C(Nc1ccc2c(c1)OCCO2)c1ccco1	8	-0.9
CO[C@H]1CCCN(C(=O)NCC(C)(C)Oc2ccccc2)CC1	-7	0.84
O=C(c1ccc2c(c1)OCCO2)N1CCN(c2ccccc2F)CC1	-9	1.3
CCOc1nc2c(c(C)nn2-c2ccccc2)c(C)c1CCC(=O)N1CCCCCC1	-5	0.79
CCc1nc(-c2ccccc2)nc(N2CCN(C(=O)COC)CC2)c1Cc1cc(C)ccc1C	-14	1.69
COCCN(CC(=O)N1N=C(c2cccc(OC)c2)C[C@H]1c1ccc(Cl)cc1)C(=O)c1ccc(C(F)(F)F)cc1	0	0.01
Cc1oc2c(c1C(=O)N1CCC(c3ncon3)CC1)C(=O)CCC2	6	-1.16
CCN(CC)C1=Nc2ccccc2Oc2ccc(NC(=O)c3ccccc3Cl)cc21	-12	1.54
COC(=O)Nc1ccc(Br)cn1	-5	0.78
CCN(C)c1nc(N2CCN(c3ccccc3)CC2)nc2c1CN(C(=O)Nc1cccc(Cl)c1)CC2	0	-0.03
COCCn1cc(NC(=O)c2c[nH]nc2C2CC2)cn1	-5	0.74
CCN(C(=O)Cc1ccc(Cl)cc1Cl)c1ccc(C)nn1	1	-0.22
Cc1nc([C@H](C)NS(=O)(=O)c2cccc3nsnc23)cs1	0	-0.05
COCC(=O)N1CCC2(CCN(Cc3ccccc3)CC2)C1	2	-0.21
COc1ncc(NC(=O)c2cccc(Oc3ccc(C)nn3)c2)cn1	-4	0.73
O=C(CCNC(=O)c1cnoc1-c1ccccc1)Nc1ccncc1	-1	0.14
Cc1ccc(NS(=O)(=O)c2cc3n(c2)CCCNC3=O)c(C)c1	2	-0.21
Cc1cnn(Cc2cc(C(=O)N3CC4(C[C@@H](C(=O)NC(C)C)N(C)C4)C3)no2)c1	-3	0.66
CCCn1cnc2ccc(-c3noc(-c4cccc(OC)c4)n3)cc21	-16	1.67
CN1CCC(N(C)C2CCCCC2N(C)C(=O)CC2CCC2)CC1 (stereo unspecified)	-3	0.39
CCCc1n[nH]cc1C(=O)N1C[C@@H]2CC[C@H]1CN(Cc1c(C)noc1C)C2	-13	1.31
